The values that follow come from article PMC4749545, “Kindlin-2 cooperates with talin to activate integrins and induces cell spreading by directly binding paxillin” (eLife, 2016).

By UniProt entry, the sequences of proteins in these tests, tags left out. Where a name states a change or a piece, a line headed by the entry shows the natural chain unless it says otherwise. Chains listed by the source or under a name are the forms on record and can include a tag or linker. Residues count along the entry.
UniProt Q8K1B8: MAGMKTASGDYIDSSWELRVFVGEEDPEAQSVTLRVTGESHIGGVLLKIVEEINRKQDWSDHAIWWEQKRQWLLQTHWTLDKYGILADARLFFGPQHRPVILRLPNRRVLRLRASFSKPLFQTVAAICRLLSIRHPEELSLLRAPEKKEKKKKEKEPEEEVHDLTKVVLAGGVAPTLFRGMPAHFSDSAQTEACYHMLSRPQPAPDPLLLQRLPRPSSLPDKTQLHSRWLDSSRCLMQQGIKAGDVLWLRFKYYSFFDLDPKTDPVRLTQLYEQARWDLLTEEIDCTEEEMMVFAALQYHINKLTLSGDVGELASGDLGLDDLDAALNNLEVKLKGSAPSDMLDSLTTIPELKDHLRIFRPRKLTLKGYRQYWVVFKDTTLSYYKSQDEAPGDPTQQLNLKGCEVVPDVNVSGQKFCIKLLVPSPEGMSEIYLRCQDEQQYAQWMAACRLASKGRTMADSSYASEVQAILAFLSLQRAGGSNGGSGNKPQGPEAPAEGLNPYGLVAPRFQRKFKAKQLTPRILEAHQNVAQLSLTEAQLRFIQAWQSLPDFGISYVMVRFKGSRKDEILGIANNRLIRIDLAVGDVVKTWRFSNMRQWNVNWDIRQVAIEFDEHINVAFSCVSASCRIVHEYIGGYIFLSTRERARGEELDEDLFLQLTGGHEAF
His10-SUMO3-paxillin-LIM3 domain (Q8VI36, residues 473-533): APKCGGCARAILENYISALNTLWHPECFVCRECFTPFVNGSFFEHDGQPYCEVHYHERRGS
Cherry-tagged paxillin (Q8VI36-2, form named): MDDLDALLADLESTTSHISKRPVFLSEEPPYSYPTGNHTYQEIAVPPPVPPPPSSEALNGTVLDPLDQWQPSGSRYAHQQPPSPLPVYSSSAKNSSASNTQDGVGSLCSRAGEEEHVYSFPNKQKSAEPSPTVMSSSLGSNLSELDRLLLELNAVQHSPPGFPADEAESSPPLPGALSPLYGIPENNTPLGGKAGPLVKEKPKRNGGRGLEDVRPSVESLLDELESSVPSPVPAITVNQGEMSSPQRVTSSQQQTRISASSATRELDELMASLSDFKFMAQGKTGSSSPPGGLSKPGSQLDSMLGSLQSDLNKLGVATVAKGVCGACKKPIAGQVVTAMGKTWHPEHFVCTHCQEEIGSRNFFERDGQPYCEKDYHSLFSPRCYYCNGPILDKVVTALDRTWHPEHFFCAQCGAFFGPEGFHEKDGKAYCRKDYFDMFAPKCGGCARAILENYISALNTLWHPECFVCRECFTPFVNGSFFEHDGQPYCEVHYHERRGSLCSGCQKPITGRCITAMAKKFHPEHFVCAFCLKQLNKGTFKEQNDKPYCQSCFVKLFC
UniProt Q13418: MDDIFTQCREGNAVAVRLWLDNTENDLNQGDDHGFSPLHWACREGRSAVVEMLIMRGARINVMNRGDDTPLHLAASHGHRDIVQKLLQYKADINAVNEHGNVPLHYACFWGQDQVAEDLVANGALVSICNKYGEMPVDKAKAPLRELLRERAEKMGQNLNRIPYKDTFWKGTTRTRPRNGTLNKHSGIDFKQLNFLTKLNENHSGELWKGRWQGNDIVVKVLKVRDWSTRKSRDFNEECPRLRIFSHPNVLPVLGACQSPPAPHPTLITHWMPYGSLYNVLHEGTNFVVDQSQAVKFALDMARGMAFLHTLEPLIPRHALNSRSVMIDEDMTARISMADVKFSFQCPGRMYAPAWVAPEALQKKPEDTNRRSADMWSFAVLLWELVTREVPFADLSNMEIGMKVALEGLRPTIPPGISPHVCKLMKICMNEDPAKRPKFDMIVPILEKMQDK

Results are given in words; binding and its absence hold for the method and conditions named. For some assays here: Binding seen in cells or lysates may run through a third protein. Some results given as binding are weak or reduced against the parent protein; the word gives no strength. For some assays here: Tags and fused reporters may be left off the sequences shown.

The target in experiment [1] is T1, GFP-tagged kindlin-2 N-terminal truncation construct (mouse) (UniProt Q8CIB5).
T1 sequence: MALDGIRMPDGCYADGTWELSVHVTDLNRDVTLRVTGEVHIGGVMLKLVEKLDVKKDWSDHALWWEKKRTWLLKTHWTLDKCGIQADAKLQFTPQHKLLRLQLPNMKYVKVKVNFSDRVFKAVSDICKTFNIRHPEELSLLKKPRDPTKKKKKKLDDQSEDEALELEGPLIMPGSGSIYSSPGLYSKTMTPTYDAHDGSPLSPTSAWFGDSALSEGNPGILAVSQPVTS
Put plainly: co-IP; GFP-IP with µ-MACS anti-GFP magnetic beads of lysates of HEK 293T cells overexpressing the GFP-tagged bait and the FLAG- or Cherry-tagged partner; western blot.

In experiment [2] the target is T2, GFP-tagged kindlin-2 lacking the PH domain (in HEK293T) (mouse) (UniProt Q8CIB5).
T2 sequence: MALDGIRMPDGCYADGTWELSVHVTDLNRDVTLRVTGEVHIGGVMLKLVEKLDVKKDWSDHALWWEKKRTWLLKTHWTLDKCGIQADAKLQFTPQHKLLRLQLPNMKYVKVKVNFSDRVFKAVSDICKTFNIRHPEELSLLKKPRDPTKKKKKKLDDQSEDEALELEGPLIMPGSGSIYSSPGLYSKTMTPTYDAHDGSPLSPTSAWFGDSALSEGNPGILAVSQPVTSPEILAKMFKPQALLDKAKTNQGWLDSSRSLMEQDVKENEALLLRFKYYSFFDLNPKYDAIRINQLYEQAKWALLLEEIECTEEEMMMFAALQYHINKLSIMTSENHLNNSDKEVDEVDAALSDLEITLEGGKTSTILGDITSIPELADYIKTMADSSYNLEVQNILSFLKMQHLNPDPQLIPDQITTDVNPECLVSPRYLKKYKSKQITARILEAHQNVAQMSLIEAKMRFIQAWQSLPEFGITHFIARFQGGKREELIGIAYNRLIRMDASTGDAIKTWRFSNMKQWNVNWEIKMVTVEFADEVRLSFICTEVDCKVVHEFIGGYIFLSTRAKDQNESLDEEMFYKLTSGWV
Described as above.

In experiment [3] the target is T3, green fluorescent protein-tagged kindlin-2 (in HEK293T) (mouse) (UniProt Q8CIB5).
T3 sequence: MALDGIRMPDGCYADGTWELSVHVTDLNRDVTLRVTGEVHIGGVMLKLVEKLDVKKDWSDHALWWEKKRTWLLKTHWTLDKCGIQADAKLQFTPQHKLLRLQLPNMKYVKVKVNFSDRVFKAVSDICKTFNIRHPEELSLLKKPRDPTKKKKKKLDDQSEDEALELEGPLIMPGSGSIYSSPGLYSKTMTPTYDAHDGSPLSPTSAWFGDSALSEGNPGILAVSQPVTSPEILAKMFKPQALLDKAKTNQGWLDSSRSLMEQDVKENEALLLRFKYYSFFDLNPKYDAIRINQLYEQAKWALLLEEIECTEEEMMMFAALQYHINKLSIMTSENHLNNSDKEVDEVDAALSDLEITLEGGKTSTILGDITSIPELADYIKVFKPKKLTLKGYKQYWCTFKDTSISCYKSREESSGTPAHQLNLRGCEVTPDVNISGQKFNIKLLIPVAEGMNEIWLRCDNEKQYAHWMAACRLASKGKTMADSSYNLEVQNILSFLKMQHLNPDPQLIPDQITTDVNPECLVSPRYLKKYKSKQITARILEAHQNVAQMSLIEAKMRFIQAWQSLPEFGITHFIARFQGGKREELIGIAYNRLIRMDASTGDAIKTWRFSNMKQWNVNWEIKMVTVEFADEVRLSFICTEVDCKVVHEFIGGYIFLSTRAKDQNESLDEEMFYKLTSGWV
The experiment is described as above.

In experiment [4] the target is T4, GFP-tagged kindlin-2 C-terminal truncation construct (mouse) (UniProt Q8CIB5).
T4 sequence: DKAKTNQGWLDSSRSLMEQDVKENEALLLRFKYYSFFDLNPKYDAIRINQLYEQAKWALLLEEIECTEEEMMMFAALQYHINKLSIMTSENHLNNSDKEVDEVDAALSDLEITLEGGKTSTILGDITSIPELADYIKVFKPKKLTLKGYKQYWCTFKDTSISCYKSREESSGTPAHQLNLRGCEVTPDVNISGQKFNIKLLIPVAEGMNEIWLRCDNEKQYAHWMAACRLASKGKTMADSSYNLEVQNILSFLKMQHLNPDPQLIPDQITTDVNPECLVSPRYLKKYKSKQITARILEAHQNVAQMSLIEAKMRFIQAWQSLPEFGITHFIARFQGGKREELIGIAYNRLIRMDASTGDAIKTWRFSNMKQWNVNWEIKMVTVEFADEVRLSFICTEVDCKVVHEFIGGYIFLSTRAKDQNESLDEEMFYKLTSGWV
The description is as above.

Experiment [5] has as its target T5, green fluorescent protein-tagged kindlin-1 (UniProt P59113).
T5 sequence: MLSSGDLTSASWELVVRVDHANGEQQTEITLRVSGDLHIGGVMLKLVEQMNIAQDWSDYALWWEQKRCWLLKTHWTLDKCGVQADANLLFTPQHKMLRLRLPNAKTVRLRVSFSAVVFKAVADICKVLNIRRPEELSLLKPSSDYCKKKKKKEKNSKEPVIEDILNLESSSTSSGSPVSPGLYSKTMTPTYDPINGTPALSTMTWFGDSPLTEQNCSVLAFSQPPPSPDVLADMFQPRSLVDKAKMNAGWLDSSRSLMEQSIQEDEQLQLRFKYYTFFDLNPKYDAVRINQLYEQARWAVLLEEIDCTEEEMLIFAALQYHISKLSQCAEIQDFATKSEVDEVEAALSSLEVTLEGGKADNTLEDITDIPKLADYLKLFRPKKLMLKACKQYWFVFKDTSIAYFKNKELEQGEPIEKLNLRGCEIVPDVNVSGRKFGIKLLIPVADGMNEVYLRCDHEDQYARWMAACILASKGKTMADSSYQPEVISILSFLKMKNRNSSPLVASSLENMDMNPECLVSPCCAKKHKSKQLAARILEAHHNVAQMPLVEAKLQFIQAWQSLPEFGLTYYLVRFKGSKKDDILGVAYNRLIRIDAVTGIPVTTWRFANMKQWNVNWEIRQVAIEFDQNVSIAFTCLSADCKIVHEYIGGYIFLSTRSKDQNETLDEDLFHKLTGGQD
The experiment is described as above.

The target in experiment [6] is green fluorescent protein-tagged kindlin-3 (UniProt Q8K1B8). Described as above.
For experiment [7], the target named is His10-SUMO3-paxillin-LIM3 domain (mouse) (UniProt Q8VI36). Put plainly: pull-down; as the pull-down with ZnCl2, but the washes after kindlin-2 held 25 mM imidazole and 1 mM EDTA in place of 1 mM ZnCl2; both purified.

As for “integrin-linked kinase (from UniProt Q13418 1-452)”, the binding entry in experiment [1] is “no binding”; in experiment [2] it was “binds”; in experiment [3] it was “binds”; in experiment [4] it was “binds”.

In the case of “Cherry-tagged paxillin (from UniProt Q8VI36-2 1-557)”, the binding entry in experiment [5], in experiment [3] and in experiment [6] was “binds” throughout.

B1: recombinant murine kindlin-2 (protein, UniProt Q8CIB5 1-680)
chain: MALDGIRMPDGCYADGTWELSVHVTDLNRDVTLRVTGEVHIGGVMLKLVEKLDVKKDWSDHALWWEKKRTWLLKTHWTLDKCGIQADAKLQFTPQHKLLRLQLPNMKYVKVKVNFSDRVFKAVSDICKTFNIRHPEELSLLKKPRDPTKKKKKKLDDQSEDEALELEGPLIMPGSGSIYSSPGLYSKTMTPTYDAHDGSPLSPTSAWFGDSALSEGNPGILAVSQPVTSPEILAKMFKPQALLDKAKTNQGWLDSSRSLMEQDVKENEALLLRFKYYSFFDLNPKYDAIRINQLYEQAKWALLLEEIECTEEEMMMFAALQYHINKLSIMTSENHLNNSDKEVDEVDAALSDLEITLEGGKTSTILGDITSIPELADYIKVFKPKKLTLKGYKQYWCTFKDTSISCYKSREESSGTPAHQLNLRGCEVTPDVNISGQKFNIKLLIPVAEGMNEIWLRCDNEKQYAHWMAACRLASKGKTMADSSYNLEVQNILSFLKMQHLNPDPQLIPDQITTDVNPECLVSPRYLKKYKSKQITARILEAHQNVAQMSLIEAKMRFIQAWQSLPEFGITHFIARFQGGKREELIGIAYNRLIRMDASTGDAIKTWRFSNMKQWNVNWEIKMVTVEFADEVRLSFICTEVDCKVVHEFIGGYIFLSTRAKDQNESLDEEMFYKLTSGWV
In the case of B1, in experiment [7], the binding entry is “no binding (condition: with 1 mM EDTA)”.
